Experimental data as given in PubChem BioAssay AID1508623 (National Center for Advancing Translational Sciences (NCATS), 2021).
Hit rate of the full screen: of about 48,000 compounds, about 450 (0.94%) were called active. Another 19% or so got no clear call; they are omitted. Calls come from the whole dose curve; as a rule, active = well fitted inhibition curve with a large enough effect; inconclusive = small, poorly fitted or top-dose-only effect; inactive = no such curve, though single readings can be large or run the other way. The list shows a part of the results.

Test: Primary qHTS for Identification of Small Molecule Inhibitors of Huntingtin Promoter Activity; note: nearly all actives have a fitted effect of over 50% in size
Conditions: HEK293 HTT promoter firefly luciferase reporter (activity 0% = vehicle and -100% = no light), 24 h; series mostly up to 57.5 µM; activity change, negative = inhibition: at the top concentration
Procedure, shortened: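 HEK293 luciferase promoter-reporter cells (2,500/well) plated 24 h, then compounds added at up to 57.5 uM final for 24 h at 37 °C. Firefly luminescence by Dual-Glo, normalized to vehicle (0%) and zero RLU (-100%).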
Potency is the fitted concentration of half-maximal effect.

Compound | activity change, negative = inhibition | Potency
COc1ccc(NC(=O)CCCn2c(=O)c3cccn3c3ccccc32)c(OC)c1 | inactive: 22.4% | –
O=C(NCCc1csc(-c2ccc(C(F)(F)F)cc2)n1)C(=O)Nc1cc(F)ccc1F | inactive: 5.8% | –
CCCCN(C)CCNC(=O)C1CCCN(S(=O)(=O)c2ccc3c(c2)oc(=O)n3C)C1 (configuration not stated) | inactive: -9.21% | –
CCOC(=O)c1c(C)[nH]c(CCC(=O)NCCCN2CCN(c3cc(Cl)ccc3C)CC2)c1C | inactive: -29.6% | –
CCc1ccccc1NC(=O)Cn1c(=O)n(CCCS(=O)(=O)C2CCCCC2)c(=O)c2ccccc21 | inactive: -18.2% | –
CCOc1ccc(C(=O)Nc2cccc(OCc3cc(=O)n4ccccc4n3)c2)cc1 | inactive: 12.7% | –
Cc1ccccc1NS(=O)(=O)c1nnc(NC(=O)c2ccc(Cl)cc2)s1 | inactive: -5.61% | –
CCOC(=O)c1[nH]c(C)c(CCC(=O)Nc2ccc(C(C)=O)cc2)c1C | inactive: -0.906% | –
Cc1cccc(CNS(=O)(=O)c2csc(C(N)=O)c2)c1 | inactive: -39.9% | –
O=C1C(c2cccc(Br)c2)N(CCc2ccccc2)C(=O)CN1C1CCCCC1 (configuration not stated) | inactive: -10.8% | –
CCOc1cccc(CNCCNC(=O)c2nonc2N)c1 | inactive: 29.6% | –
COc1ccc(-c2cc(C(F)(F)F)nc(SCCC(=O)Nc3ccc(OC)c(OC)c3)n2)cc1 | inactive: -29.2% | –
CCN1CCC(N(Cc2ccc3c(c2)OCO3)C(=O)Nc2cc(F)ccc2F)CC1 | inactive: -9.12% | –
Cc1ccc(NC(=O)c2sc3nc(-c4cccs4)ccc3c2N)cc1F | inactive: 3.64% | –
CC(C)(C)NC(=O)C1CCN(c2nc3ccccc3nc2C(F)(F)F)CC1 | inactive: -7.4% | –
COc1ccc(CNC(=O)CN2C(=O)CC(c3ccc(C)c(C)c3)=Nc3ccccc32)cc1 | inactive: 59.9% | –
O=c1[nH]c2cc(Br)ccc2n2cccc12 | inactive: 4.6% | –
O=C(O)c1ccccc1Nc1cc(Cl)ccc1C(=O)O | inactive: -4.46% [at 25.2 µM] | –
CCOc1ccc(CNC(=O)CSc2nnc(C)c3c(C)n(-c4ccc(Cl)cc4)nc23)cc1 | inactive: -4.75% | –
O=C(CN1C(=O)COc2ccc(S(=O)(=O)NC3CCCC3)cc21)NCc1ccc(Cl)cc1 | inactive: -14.9% | –
CCN(CC)CCSc1c(C(C)C)cnc2c1c(=O)n(C)c(=O)n2C | inactive: -0.493% | –
CN1CCN(C(=O)C(=O)Nc2c3c(nn2-c2ccc(Cl)cc2)CSC3)CC1 | inactive: -12.8% | –
Cc1nn2c(=O)cc(COC(=O)c3cccc(NC(=O)COc4ccccc4C)c3)nc2s1 | – | active: 3.16 µM
CCOCCCn1c(=N)c(C(=O)NCc2cccnc2)cc2c(=O)n3ccccc3nc21 | inactive: 0.756% | –
Cc1ccc(N2C(=O)CCSC23C(=O)N(Cc2ccccc2)c2ccccc23)cc1 (configuration not stated) | inactive: 0.597% | –

Compound | activity change, negative = inhibition | Potency
Cn1c(=O)c(C(=O)O)nn(-c2ccccc2)c1=O | inactive: -1.55% | –
Cc1ccc(NC(=O)Nc2nnc(N3CCCC3)s2)cc1C | inactive: -8.71% | –
COC(=O)c1ccc(C(=O)OC)c(NC(=O)CN(c2ccccc2)S(=O)(=O)N(C)C)c1 | inactive: -29% | –
COc1cccc(CNC(=O)CSC2=Nc3ccccc3N=C(c3ccc(F)cc3)C2)c1 | inactive: -30.4% | –
Cn1nnnc1SCCCNCc1ccccc1OCc1ccc(Cl)cc1 | inactive: -38.3% | –
NS(=O)(=O)c1cc2c(cc1Cl)NC(CSCc1ccccc1)=NS2(=O)=O | inactive: 3.13% | –
CCOC(=O)C1CCN(C(=O)Cn2nc(CC)n3c(cc4sccc43)c2=O)CC1 | – | active: 2.82 µM
Cc1cc(C)c(NC(=O)Cn2c(=O)n(CCC(=O)N3CCc4ccccc4C3)c(=O)c3ccccc32)c(C)c1 | inactive: -14.2% | –
Cc1c(CNC2CCCCC2)c(C(=O)O)c(C)n1Cc1ccc(Cl)cc1 | inactive: 1.07% | –
Cc1ccc(Cn2c3ccccc3c3cnn(CC(=O)Nc4cc(Cl)ccc4C)c(=O)c32)cc1 | inactive: -16.2% | –
COc1ccc(N2CCN(C(=O)c3cccn3-c3nnc(N4CCCC4)s3)CC2)cc1 | inactive: -3.67% | –
O=C(CSc1n[nH]c(-c2ccccc2Cl)n1)NCCc1ccccc1 | inactive: -7.7% | –
CCc1nn(CCCC(=O)NCc2ccc(OC(C)C)cc2)c(=O)c2cc3occc3n12 | inactive: -20.4% | –
CCOc1cc(CNS(=O)(=O)c2ccc3c(c2)C(C)(C)C(=O)N3)cc(OCC)c1OCC | inactive: 2.02% | –
CC(NC(=O)Cn1ccc2cc(S(=O)(=O)N3CCCCCC3)ccc21)c1ccccc1 (configuration not stated) | inactive: -20.6% | –
COc1ccc(C)cc1NC(=O)Nc1nnc(N2CCCCC2)s1 | inactive: 4.39% | –
CCOC(=O)C1CCCN(c2nc3c(S(=O)(=O)c4ccc(CC)cc4)nnn3c3ccc(Cl)cc23)C1 (configuration not stated) | inactive: 13% | –
CCOC(=O)c1c(C)[nH]c(CCC(=O)Nc2ccccc2C(F)(F)F)c1C | inactive: -16.8% | –
COc1ccc(C(=O)Nc2ccc(S(=O)(=O)Nc3cc(C)nc(C)n3)cc2)cc1 | inactive: 5.56% | –
O=C(CCS(=O)(=O)c1cc2c(cc1Cl)NC(=O)CO2)NCCc1ccccc1 | inactive: -5.31% | –
CCCS(=O)(=O)N1CC(=O)N(c2cccc(F)c2)C(C)(C(=O)NC2CCCCCC2)C1 (configuration not stated) | inactive: 0.626% | –
COc1cc(CNc2ccc3[nH]c(=O)[nH]c3c2)ccc1OCc1ccc(F)cc1Cl | inactive: -6.62% | –
COC(=O)c1ccc2c(=O)n3nc(Nc4ccc(F)cc4F)sc3nc2c1 | inactive: -1.84% | –
CS(=O)(=O)N(Cc1ccccc1)c1ccc(C(=O)Nc2cccc(Cl)c2)cc1 | inactive: -7.98% | –
COc1ccc(CNC(=O)c2ccc3c(O)c(S(=O)(=O)c4ccccc4)c(=O)[nH]c3c2)cc1 | inactive: -4.8% | –

Compound | activity change, negative = inhibition | Potency
Cc1cc(NS(=O)(=O)c2ccc(N)cc2)no1 | inactive | –
COc1ccc(NC(=O)c2c(NC(=O)C(F)(F)F)sc3c2CCCCC3)cc1 | inactive: -1.86% | –
O=C(Nc1cccc(C(F)(F)F)c1)Nc1nnc(N2CCCCCC2)s1 | inactive: -14% | –
COCCCNC(=O)CN1C(=O)c2cccnc2Sc2ccccc21 | inactive: -5.05% | –
COc1ccccc1N1CCN(C(=O)c2cc(-c3ccc(C)c(F)c3)on2)CC1 | inactive: 2.6% | –
Cc1ccc(NC(=O)CSc2nc(-c3ccco3)cc(C(F)(F)F)n2)c(C)c1 | inactive: -15.7% | –
CCOc1ccc(S(=O)(=O)N2Cc3ccccc3CC2C(=O)Nc2ccc(NC(C)=O)cc2)cc1 (configuration not stated) | inactive: -19% | –
CCN(CC)CCNC(=O)C(=O)Nc1c2c(nn1-c1ccc(F)cc1)CSC2 | inactive: -15.6% | –
Cc1cccc(NC(=O)CSc2nc3ccc(NC(=O)COc4ccccc4C)cc3s2)c1 | inactive: -10.7% | –
O=C(NCc1ccc(Cl)cc1)C1CCN(c2nn3cc(-c4ccc(F)cc4)nc3s2)CC1 | inactive: 3.93% | –
CCn1c2c(c(=O)n3ncc(C(=O)Nc4cc(Cl)ccc4OC)c13)CN(Cc1ccc(OC)cc1)CC2 | inactive: -3.48% | –
CCCNC(=O)CCC(=O)N1Cc2cccc(OC)c2Oc2ncccc21 | inactive: -0.186% | –
CC1CN(C(=O)NCc2ccccc2)c2cc(Cl)ccc2O1 (configuration not stated) | inactive: 4.29% | –
COc1ccc(NC(=O)c2nc(S(C)(=O)=O)ncc2N(Cc2ccc(C)cc2)Cc2ccco2)cc1Cl | inactive: -16.8% | –
COc1cccc(CNC(=O)c2cc(-c3ccc(Cl)s3)nc3ccccc23)c1 | inactive: 9.88% | –
CCCCc1cc(=O)oc2cc(C)c3c(C(C)(C)C)coc3c12 | inactive: -8.56% | –
COc1ccc(C)cc1NC(=O)N1CCN(S(=O)(=O)c2ccc3c(ccn3C)c2)CC1 | inactive: -26% | –
Cc1ncc(CO)c2c1Oc1nc(-c3ccc(Cl)cc3)nc(SCC(=O)N3CCCCC3)c1C2 | inactive: -21.4% | –
Cc1cccc(CSc2nc3c(sc4ccccc43)c(=O)n2CCC(=O)NC(C)C)c1 | inactive: 20.8% | –
O=C(CSc1nc2ncccc2[nH]1)Nc1cc(F)ccc1F | inactive: -4.61% | –
O=C(CCn1c(=O)c2cccn2c2cccnc21)NCc1ccccc1Cl | inactive: 5.27% | –
Cc1ccc(CNC(=O)CCc2c(C)nn(-c3ccc(N4CCOCC4)nn3)c2C)cc1 | inactive: 2.05% | –
CCOc1ccc(C(=O)c2cn(CC(=O)Nc3ccc4c(c3)OCO4)c3ccc(OC)cc3c2=O)cc1 | inactive: -7.52% | –
O=C(Nc1cccc(Cl)c1)C1CCCN(c2nn3cc(-c4ccc(F)cc4)nc3s2)C1 (configuration not stated) | – | active: 3.98 µM
CCn1c(=O)n(-c2ccc3c(c2)OCO3)c2nc(-c3ccc(C(C)C)cc3)nc(C(N)=O)c21 | inactive: -7.98% | –

Compound | activity change, negative = inhibition | Potency
CCOc1ccc2c(c1)c(=O)c(C(=O)c1ccc(CC)cc1)cn2CC(=O)Nc1ccccc1OC | inactive: -13.6% | –
COc1ccc(OC)c(NC(=O)Cn2c(=O)c3cccn3c3ccccc32)c1 | inactive: -5.84% | –
CCOC(=O)C1CCN(C(=O)c2nn(-c3ccc(OC)c(Cl)c3)c(=O)c3c2c2ccccc2n3C)CC1 | inactive: 8.85% | –
Cc1ccc(Cl)cc1NC(=O)CSc1nc2ccccc2c2nc(-c3ccccc3)nn12 | inactive: -5.32% | –
Cc1ccc(S(=O)(=O)c2cn(CC(=O)Nc3cccc(Cl)c3)c3ccccc3c2=O)cc1 | inactive: -30.9% | –
CC1(C)N=C(SCc2ccc(F)cc2)c2ccccc2N1 | inactive: -4.07% [at 11.5 µM] | –
O=C(Cn1cc(C(=O)C(F)(F)F)c2ccccc21)N1CCCCCC1 | inactive: -12.4% | –
O=C(COc1ccc2ccccc2c1)NC1CC(=O)N(c2ccc(F)cc2)C1 (configuration not stated) | inactive: 5.71% | –
CCOc1ccccc1NC1(c2ccccc2)C(=O)c2ccccc2C1=O | inactive: -13.9% | –
CC1CCCCN1CCCNC(=O)c1cc(Sc2cccc(Cl)c2)nc2ccccc12 (configuration not stated) | inactive: -27.3% | –
Cc1ccccc1CN1c2ccccc2-c2nc(SCC(=O)c3ccccc3)ncc2S1(=O)=O | inactive: -6.49% | –
Cc1ccccc1OCc1nc2c3cnn(-c4cccc(F)c4)c3ncn2n1 | inactive: -8.65% | –
Cc1c(CNC2CCCCC2)c(C(=O)O)c(C)n1Cc1ccccc1F | inactive: -8.62% | –
CCNC(=O)c1c(NC(=O)Cc2coc3ccc(CC)cc23)sc2c1CCCC2 | inactive: -30% | –
CC(C)(C)C(=O)C(Oc1ccc(Cl)cc1)n1ccnc1 (configuration not stated) | inactive: 1.11% | –
COc1cccc(C2C(C(=O)Nc3ccc(Cl)cc3)=C(C)Nc3nc4ccccc4n32)c1OC (configuration not stated) | inactive: -20.6% | –
CCCCNC(=O)c1c(-c2ccccc2)c(-c2ccccc2)nn(C)c1=O | inactive: -6.89% | –
Cc1oc2ncn(CC(C)C)c(=O)c2c1C(=O)N(CCN(C)C)Cc1ccccc1 | inactive: 8.73% | –
CCCCNC(=O)c1ccc2c(c1)N(CC)C(=O)c1ccccc1S2 | inactive: -27.8% | –
CCCc1nnc(NC(=O)c2cc(=O)c3ccccc3o2)s1 | inactive: 47.5% | –
CCOC(=O)c1c(C)n(-c2ccccc2)c2ccc(OC(=O)COc3ccccc3)cc12 | inactive: 3.82% | –
CCCCNC(=O)CN1C(=O)c2cccnc2Sc2ccccc21 | inactive: -14% | –
